# Assay results from the supplement of paper PMC8728848.
# The other results are listed elsewhere or left out.
# B1: Gal 9 (Canis lupus) (protein)
# chain: MAFSSSQPPYLSPGVPFSGKIQGGLQDGLKITINGTILYCNGTRFAVNFHSGHSDSDIAFHFNPRFEEGGYVVCNTKQKGSWGSEERKMQMPFQMGNPFELCFMVNSCDFKVTVNGSHFTQYSHRVPFHYVDTLSITGAVQLSYISFQSPGVWQSSSAPITQTVIHTVQTTPGQPFPNPIIPPTAYPTPTYPMPFFTSIPGGLYPSKSIIVSGTVLPGAKRFHINLRSGNDIAFHLNPRFNENTVVRNMQINNSWGSEERSLPRKMPFVQGQSFSVWIMCEGHCFKVAVDGEHLFEYYHRLKNLLAINNMEVAGDVQLTHVQT
# What was measured:
# Test in all cases: glycan array binding signal (z-score within array); higher = stronger binding
# Settings in all cases: glycan notation: IUPAC condensed, linker removed
# [1] = target: Fuc(a1-2)Gal
# Summary of the method: (§1)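 Columns mapping to the same glycan were averaged after glycan names were converted to IUPAC-condensed notation. The data come from 3228 arrays in the Consortium for Functional Glycomics database, limited to those with an available protein sequence. Binding is reported as a within-array Z-score averaged across arrays of one protein sequence and across linkers.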
# [2] = target: Fuc(a1-2)Gal(b1-3)GalNAc
# Summary of the method: as §1
# [3] = target: Fuc(a1-2)Gal(b1-3)GalNAc(a1-3)[Fuc(a1-2)]Gal(b1-4)Glc
# Summary of the method: as §1
# [4] = target: Fuc(a1-2)Gal(b1-3)GalNAc(a1-3)[Fuc(a1-2)]Gal(b1-4)GlcNAc
# Summary of the method: as §1
# [5] = target: Fuc(a1-2)Gal(b1-3)GalNAc(b1-3)Gal
# Summary of the method: as §1
# [6] = target: Fuc(a1-2)Gal(b1-3)GalNAc(b1-3)Gal(a1-4)Gal(b1-4)Glc
# Summary of the method: as §1
# [7] = target: Fuc(a1-2)Gal(b1-3)GalNAc(b1-4)[Neu5Ac(a2-3)]Gal(b1-4)Glc
# Summary of the method: as §1
# [8] = target: Fuc(a1-2)Gal(b1-3)GlcNAc
# Summary of the method: as §1
# [9] = target: Fuc(a1-2)Gal(b1-3)GlcNAc(b1-2)Man(a1-3)[Fuc(a1-2)Gal(b1-3)GlcNAc(b1-2)Man(a1-6)]Man(b1-4)GlcNAc(b1-4)GlcNAc
# Summary of the method: as §1
# [10] = target: Fuc(a1-2)Gal(b1-3)GlcNAc(b1-2)Man(a1-3)[Fuc(a1-2)Gal(b1-3)GlcNAc(b1-2)Man(a1-6)]Man(b1-4)GlcNAc(b1-4)[Fuc(a1-6)]GlcNAc
# Summary of the method: as §1
# [11] = target: Fuc(a1-2)Gal(b1-3)GlcNAc(b1-3)Gal(b1-4)Glc
# Summary of the method: as §1
# [12] = target: Fuc(a1-2)Gal(b1-3)GlcNAc(b1-3)GalNAc
# Summary of the method: as §1
# [13] = target: Fuc(a1-2)Gal(b1-3)GlcNAc(b1-3)[Fuc(a1-3)[Gal(b1-4)]GlcNAc(b1-6)]Gal(b1-4)Glc
# Summary of the method: as §1
# [14] = target: Fuc(a1-2)Gal(b1-3)GlcNAc(b1-3)[Gal(b1-4)GlcNAc(b1-6)]Gal(b1-4)Glc
# Summary of the method: as §1
# [15] = target: Fuc(a1-2)Gal(b1-3)GlcNAc(b1-3)[Neu5Ac(a2-6)Gal(b1-4)GlcNAc(b1-6)]Gal(b1-4)Glc
# Summary of the method: as §1
# [16] = target: Fuc(a1-2)Gal(b1-3)[Fuc(a1-4)]GlcNAc
# Summary of the method: as §1
# [17] = target: Fuc(a1-2)Gal(b1-3)[Fuc(a1-4)]GlcNAc(b1-2)Man(a1-3)[Fuc(a1-2)Gal(b1-3)[Fuc(a1-4)]GlcNAc(b1-2)Man(a1-6)]Man(b1-4)GlcNAc(b1-4)GlcNAc
# Summary of the method: as §1
# [18] = target: Fuc(a1-2)Gal(b1-3)[Fuc(a1-4)]GlcNAc(b1-3)[Fuc(a1-3)[Gal(b1-4)]GlcNAc(b1-6)]Gal(b1-4)Glc
# Summary of the method: as §1
# [19] = target: Fuc(a1-2)Gal(b1-3)[Fuc(a1-4)]GlcNAc(b1-3)[Gal(b1-4)GlcNAc(b1-6)]Gal(b1-4)Glc
# Summary of the method: as §1
# [20] = target: Fuc(a1-2)Gal(b1-4)Glc
# Summary of the method: as §1
# [21] = target: Fuc(a1-2)Gal(b1-4)Glc6S
# Summary of the method: as §1
# [22] = target: Fuc(a1-2)Gal(b1-4)GlcNAc
# Summary of the method: as §1
# [23] = target: Fuc(a1-2)Gal(b1-4)GlcNAc(b1-2)Man(a1-3)[Fuc(a1-2)Gal(b1-4)GlcNAc(b1-2)Man(a1-6)]Man(b1-4)GlcNAc(b1-4)GlcNAc
# Summary of the method: as §1
# [24] = target: Fuc(a1-2)Gal(b1-4)GlcNAc(b1-2)Man(a1-3)[Fuc(a1-2)Gal(b1-4)GlcNAc(b1-2)Man(a1-6)]Man(b1-4)GlcNAc(b1-4)[Fuc(a1-6)]GlcNAc
# Summary of the method: as §1
# [25] = target: Fuc(a1-2)Gal(b1-4)GlcNAc(b1-2)[Fuc(a1-2)Gal(b1-4)GlcNAc(b1-4)]Man(a1-3)[Fuc(a1-2)Gal(b1-4)GlcNAc(b1-2)Man(a1-6)]Man(b1-4)GlcNAc(b1-4)GlcNAc
# Summary of the method: as §1
# [26] = target: Fuc(a1-2)Gal(b1-4)GlcNAc(b1-3)Gal(b1-4)GlcNAc
# Summary of the method: as §1
# [27] = target: Fuc(a1-2)Gal(b1-4)GlcNAc(b1-3)Gal(b1-4)GlcNAc(b1-3)Gal(b1-4)GlcNAc
# Summary of the method: as §1
# [28] = target: Fuc(a1-2)Gal(b1-4)GlcNAc(b1-3)GalNAc
# Summary of the method: as §1
# [29] = target: Fuc(a1-2)Gal(b1-4)GlcNAc(b1-3)[Fuc(a1-2)Gal(b1-4)GlcNAc(b1-6)]GalNAc
# Summary of the method: as §1
# [30] = target: Fuc(a1-2)Gal(b1-4)GlcNAc6S
# Summary of the method: as §1
binder,measurement,setting,value
B1,glycan array binding signal (z-score),[1],-0.346
same,glycan array binding signal (z-score),[2],-0.338
same,glycan array binding signal (z-score),[3],0.023
same,glycan array binding signal (z-score),[4],0.071
same,glycan array binding signal (z-score),[5],-0.335
same,glycan array binding signal (z-score),[6],-0.352
same,glycan array binding signal (z-score),[7],-0.342
same,glycan array binding signal (z-score),[8],0.059
same,glycan array binding signal (z-score),[9],-0.152
same,glycan array binding signal (z-score),[10],-0.285
same,glycan array binding signal (z-score),[11],0.273
same,glycan array binding signal (z-score),[12],-0.296
same,glycan array binding signal (z-score),[13],0.15
same,glycan array binding signal (z-score),[14],0.057
same,glycan array binding signal (z-score),[15],-0.017
same,glycan array binding signal (z-score),[16],-0.33
same,glycan array binding signal (z-score),[17],-0.265
same,glycan array binding signal (z-score),[18],-0.356
same,glycan array binding signal (z-score),[19],-0.147
same,glycan array binding signal (z-score),[20],-0.043
same,glycan array binding signal (z-score),[21],0.056
same,glycan array binding signal (z-score),[22],-0.32
same,glycan array binding signal (z-score),[23],0.116
same,glycan array binding signal (z-score),[24],-0.086
same,glycan array binding signal (z-score),[25],-0.006
same,glycan array binding signal (z-score),[26],-0.057
same,glycan array binding signal (z-score),[27],0.039
same,glycan array binding signal (z-score),[28],-0.254
same,glycan array binding signal (z-score),[29],-0.182
same,glycan array binding signal (z-score),[30],-0.098
